Test results taken from a collection of fitness landscapes (doi:10.1016/j.celrep.2020.107928).
The full ranking holds about 81,000 sequences; the median of “one-hybrid fitness for binding parS DNA” is about -0.17, and the highest 2% start at about 0.51. This is one part of the list.

B1: Caulobacter ParB omega fusion; a variant is named by its letters at X, in order, B8GW30 (parent)
chain: MESVVVGEPGMSEGRRGLGRGLSALLGEVDAAPAQAPGEQLGGSREAPIEILQRNPDQPRRTFREEDLEDLSNSIREKGVLQPILVRPSPDTAGEYQIVAGERAWRAAQRAGLKTVPIMVRELDDLAVLEIGIIENVQRADLNVLEEALSYKVLMEKFERTQENIAQTIGKSXSHVANXMRLLXLPDEVQSYLVSGELTAXHARAIAAAADPVALAKQIIEGGLSVRETEALARKAPNLSAGKSKGGRPPRVKDTDTQALESDLSSVLGLDVSIDHRGSTGTLTITYATLEQLDDLCNRLTRGI

Variants of: B1
Assay: one-hybrid fitness for binding parS DNA (scaled: cognate 1, non-cognate 0); higher = stronger binding
Conditions: with parS DNA site
In short: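 Fitness is the rescaled log change in variant-to-wild-type read ratio, measured by Illumina sequencing of plasmids before and after bacterial one-hybrid selection. The scale puts cognate at 1 and non-cognate at 0. Selection of Caulobacter ParB libraries, four specificity codons randomised, took place in E. coli USO with a HIS3 reporter, site 19 bp from the promoter, over 48 hours at 37°C on M9-minus-histidine with 0.1 mM IPTG and 5 mM 3-AT.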

| Variant | one-hybrid fitness for binding parS DNA |
| --- | --- |
| TVPE | ≤ 0.2 |
| TEVG | ≤ 0.2 |
| NTHV | ≤ 0.2 |
| YSYW | ≤ 0.2 |
| AAPR | ≤ 0.2 |
| TMSC | ≤ 0.2 |
| IRAK | ≤ 0.2 |
| TFWC | ≤ 0.2 |
| SSVK | ≤ 0.2 |
| PNAF | ≤ 0.2 |
| ENNR | ≤ 0.2 |
| RFTS | 1.01 |
| AEGS | ≤ 0.2 |
| FWMG | ≤ 0.2 |
| AAHF | ≤ 0.2 |
| RMPI | ≤ 0.2 |
| FAIM | ≤ 0.2 |
| KPLE | ≤ 0.2 |
| QITQ | ≤ 0.2 |
| LELT | ≤ 0.2 |
| LSIE | ≤ 0.2 |
| QCTY | ≤ 0.2 |
| CHMT | ≤ 0.2 |
| CAGA | ≤ 0.2 |
| GMPC | ≤ 0.2 |
| VYNA | ≤ 0.2 |

| Variant | one-hybrid fitness for binding parS DNA |
| --- | --- |
| WNKR | ≤ 0.2 |
| RSVQ | ≤ 0.2 |
| LGPR | ≤ 0.2 |
| RNAD | ≤ 0.2 |
| LRPE | ≤ 0.2 |
| YPNY | ≤ 0.2 |
| MTDK | ≤ 0.2 |
| WRLM | ≤ 0.2 |
| RKRH | ≤ 0.2 |
| GALL | ≤ 0.2 |
| NQHP | ≤ 0.2 |
| DTEM | ≤ 0.2 |
| VDAL | ≤ 0.2 |
| NTSR | ≤ 0.2 |
| QRGS | ≤ 0.2 |
| LDAK | ≤ 0.2 |
| TMAF | ≤ 0.2 |
| WTTN | ≤ 0.2 |
| LNKV | ≤ 0.2 |
| NTNK | ≤ 0.2 |
| PTNP | ≤ 0.2 |
| HPQF | ≤ 0.2 |
| SAIP | ≤ 0.2 |
| STSL | ≤ 0.2 |
| GSTH | ≤ 0.2 |
| THCQ | ≤ 0.2 |

| Variant | one-hybrid fitness for binding parS DNA |
| --- | --- |
| GMND | ≤ 0.2 |
| QCET | ≤ 0.2 |
| KWLL | ≤ 0.2 |
| LVRV | ≤ 0.2 |
| LWTM | ≤ 0.2 |
| AGHP | ≤ 0.2 |
| IVKR | ≤ 0.2 |
| PTNI | ≤ 0.2 |
| WRRV | ≤ 0.2 |
| CMSW | ≤ 0.2 |
| VMTV | ≤ 0.2 |
| SMKL | ≤ 0.2 |
| ERGG | ≤ 0.2 |
| PTHG | ≤ 0.2 |
| WRLF | ≤ 0.2 |
| VHCN | ≤ 0.2 |
| CVTG | ≤ 0.2 |
| DSSM | ≤ 0.2 |
| LNCC | ≤ 0.2 |
| KGIC | ≤ 0.2 |
| ASFT | ≤ 0.2 |
| AMLG | ≤ 0.2 |
| FMIT | ≤ 0.2 |
| YYRW | ≤ 0.2 |
| TRID | ≤ 0.2 |
| WVTQ | ≤ 0.2 |

| Variant | one-hybrid fitness for binding parS DNA |
| --- | --- |
| GDYG | ≤ 0.2 |
| AVIR | ≤ 0.2 |
| NNHS | ≤ 0.2 |
| LTAY | ≤ 0.2 |
| EVWM | ≤ 0.2 |
| YRQA | ≤ 0.2 |
| LKSK | ≤ 0.2 |
| NQKA | ≤ 0.2 |
| CVTS | ≤ 0.2 |
| CTVP | ≤ 0.2 |
| WNGI | ≤ 0.2 |
| VERF | ≤ 0.2 |
| SNKI | ≤ 0.2 |
| VERY | ≤ 0.2 |
| LRKY | ≤ 0.2 |
| RWNV | ≤ 0.2 |
| QFLW | ≤ 0.2 |
| TYLN | ≤ 0.2 |
| SYHR | ≤ 0.2 |
| TRLH | ≤ 0.2 |
| DNME | ≤ 0.2 |
| MLSY | ≤ 0.2 |
| LNWH | 0.233 |
| GPCV | ≤ 0.2 |
| THQA | ≤ 0.2 |
| GCRT | ≤ 0.2 |

| Variant | one-hybrid fitness for binding parS DNA |
| --- | --- |
| YKLR | ≤ 0.2 |
| DNTG | ≤ 0.2 |
| HWLG | ≤ 0.2 |
| QMWA | ≤ 0.2 |
| CCQS | ≤ 0.2 |
| LRFT | ≤ 0.2 |
| CYPG | ≤ 0.2 |
| DPVT | ≤ 0.2 |
| NPNM | ≤ 0.2 |
| GLYG | ≤ 0.2 |
| HFPA | ≤ 0.2 |
| ELWL | ≤ 0.2 |
| PTCA | ≤ 0.2 |
| WLIT | ≤ 0.2 |
| DTHG | ≤ 0.2 |
| PLEL | ≤ 0.2 |
| HWSC | ≤ 0.2 |
| QGES | ≤ 0.2 |
| NHGS | ≤ 0.2 |
| RTVR | ≤ 0.2 |
| PICF | ≤ 0.2 |
| PTPW | ≤ 0.2 |
| VCRY | ≤ 0.2 |
| PTWQ | ≤ 0.2 |
| AAPK | ≤ 0.2 |
| QCPT | ≤ 0.2 |

| Variant | one-hybrid fitness for binding parS DNA |
| --- | --- |
| HYQR | ≤ 0.2 |
| FMRC | ≤ 0.2 |
| WNPL | ≤ 0.2 |
| TACI | ≤ 0.2 |
| AGPF | ≤ 0.2 |
| AIAC | ≤ 0.2 |
| KTEN | ≤ 0.2 |
| KHGP | 0.201 |
| WLST | ≤ 0.2 |
| YIIS | ≤ 0.2 |
| MGHL | ≤ 0.2 |
| QDMD | ≤ 0.2 |
| PAYG | ≤ 0.2 |
| NNCE | ≤ 0.2 |
| DSDS | ≤ 0.2 |
| HLTM | ≤ 0.2 |
| PDLV | ≤ 0.2 |
| YSED | ≤ 0.2 |
| VLGE | ≤ 0.2 |
| PWAV | ≤ 0.2 |
| TTSV | ≤ 0.2 |
| TCDR | ≤ 0.2 |
| TMGF | ≤ 0.2 |
